Values marked as one replicate rest on one cluster of the flow cell; about a third of the high ones do not repeat.
System: ATP
Assay: switch fluorescence ratio, 500 uM ATP over buffer (Cy3 cluster intensity, sum of 5 cycles each) (fold (ratio)); higher = stronger signal-on switching upon ATP binding; sequences stand for … in TCGTCGGCAGCGTCAGATGTGTATAAGAGACAGTTTTTTTTTTTTTTTTTTTTTTTTT…TC
Conditions: aptamer strand: ATP DNA aptamer (quencher-CACCTGGGGGAGTATTGCGGAGGAAGG + anchor), 100 nM annealed; ATP concentration: 500 uM; one replicate
In short: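 Between each of five buffer/ATP cycles, the flow-cell was stripped with NaOH and re-annealed. Each cycle imaged Cy3-labelled switching-strand clusters, annealed to 100 nM quencher-labelled ATP aptamer on a modified Illumina MiSeq flow-cell, first in selection buffer and then after 15 min with 500 uM ATP at 22 °C. The fluorescence ratio is summed target-cycle over summed buffer-cycle Cy3 intensity per cluster, averaged per switch-domain sequence, with clusters outside 100-1000 RFU excluded.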
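Also: ATP exposure 15 min at 22 °C before imaging.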

Sequence | switch fluorescence ratio
ACGGAAAGAC | 1.27
ACATAGCCCG | 1.02
TTACTAACGG | 1.58
CTTTGGGTTC | 0.998
CAGTAAAG | 0.971
ATGCAGTTCG | 1.02
TGAGAATACC | 1.03
TAGCTGCCTG | 1.09
GAATTTAGCT | 1.05
CAGCTCACGG | 1.05
CTATCTGGTG | 1.16
ACAACTGTTT | 1.11
AGTTGGACCA | 0.958
CGTTCGTCAT | 1.06
CAGAATCGGG | 1.03
TGAATCCCTT | 1.04
AAGGCTTAAA | 0.967
TCGTCCAATG | 1.07
GATACGCTCA | 1.05
GTCGGCTTAT | 1.11
CGGCTCTGCG | 1.02
ACCTGTTTCT | 1.04

Sequence | switch fluorescence ratio
GCTAGAATCA | 0.975
TATACTAGTA | 1.02
TTATTGCT | 0.974
ATGCGCGTGG | 1.03
CAGCTACAAT | 1.02
GGGAGCAGAG | 0.968
AGAATAAAAG | 1.04
CGGAATCTGA | 0.987
TGGAAGCTTT | 1.02
CGAAAGTCGA | 0.985
TGTAGAAGGT | 1.06
TGTTGCAGA | 0.977
AGACGCAGTT | 1
CTTTTTGTTA | 1.01
TTTAAACTTG | 1.04
AATCCCCTGA | 0.992
AAAAAATAGA | 0.997
TCAATCTCAG | 0.979
TCCAAAATGA | 1.07
TGTTACGTAT | 1.03
GACACCTAAT | 1.41
CATTATTGCC | 0.989

Sequence | switch fluorescence ratio
TCGCACTGGG | 1.12
AGATACGTAG | 1.04
CGGACAGATG | 1.02
TCGCTATGTG | 0.99
TCAGCCCATA | 1.02
GGGTTGCACA | 0.997
AATGTAGGGC | 1.04
CCCTCCTGTT | 1.74
ATCGATCTTT | 0.978
GACTGTCCCG | 1.04
AAGGGGCGGT | 0.99
GTACGAAGGA | 0.989
TATTCAGCA | 1.02
CAAGCATGCC | 1.03
CCCTAAAAAG | 1.03
AATTGAGTGA | 0.956
AATTCTCGT | 1.01
TTCAGCTCAA | 1.02
CTTGTAGTGG | 1.01
TGGGACCGTA | 1.05
TGAGGAAATC | 2.31
CGTAGTTGTG | 1

Sequence | switch fluorescence ratio
TAAATAAGGA | 1.04
CGAGTCAAAT | 1.09
GAAGCTGGGC | 1.01
GAATGGAGGA | 1.01
TTAGCATGA | 1.02
TGGCGCCTGT | 0.989
CATCATGCTC | 1.11
CGAGCATACC | 2
GAGGTCGGTT | 0.986
CTGAGTAATT | 1.08
GAAGGAGCCA | 0.933
GAAGAGTGTA | 0.98
GGGACGCCTG | 0.942
AAAAGTCGG | 0.969
TCATATTCAA | 1.01
AAATCATTCT | 1.01
ACTGGAGATA | 1.01
ATTTTGTC | 1.05
TGGCCGGTT | 1.06

From the supplement of paper PMC10126150
